Results taken from PubChem BioAssay AID1030 (National Center for Advancing Translational Sciences (NCATS), 2008).
“And” between values parts separate entries of the source, which are not always exact repeats. Equal values may be shown once. In all, about 220,000 compounds went through this assay and about 16,000 (7.3%) were called active. Inconclusive results, whose numbers are uncertain, are shown with a selection of clear calls. Calls follow the shape of the dose curve; as a rule, active = well fitted inhibition curve with a large enough effect (not every such curve was filed as active); inconclusive = small, poorly fitted or top-dose-only effect, or another doubt; inactive = no such curve, though single readings can be large or run the other way. Where the call is inconclusive, the potency comes from a doubtful curve fit.
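For activity, negative = inhibition in this document: plate controls were no enzyme wells and a reference inhibitor.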
Potency is read from the fitted curve at half-maximal effect; tags tell the direction and shape of the fitted curve.

Each compound was assayed against Aldehyde dehydrogenase 1A1 (Homo sapiens) (UniProt P00352) (assay: qHTS Assay for Inhibitors of Aldehyde Dehydrogenase 1 (ALDH1A1)). Conditions: Purified ALDH1A1, NADH fluorescence, propionaldehyde substrate; series mostly up to 75.3 µM.
Sequence of UniProt P00352 (P00352 whole entry, looked up): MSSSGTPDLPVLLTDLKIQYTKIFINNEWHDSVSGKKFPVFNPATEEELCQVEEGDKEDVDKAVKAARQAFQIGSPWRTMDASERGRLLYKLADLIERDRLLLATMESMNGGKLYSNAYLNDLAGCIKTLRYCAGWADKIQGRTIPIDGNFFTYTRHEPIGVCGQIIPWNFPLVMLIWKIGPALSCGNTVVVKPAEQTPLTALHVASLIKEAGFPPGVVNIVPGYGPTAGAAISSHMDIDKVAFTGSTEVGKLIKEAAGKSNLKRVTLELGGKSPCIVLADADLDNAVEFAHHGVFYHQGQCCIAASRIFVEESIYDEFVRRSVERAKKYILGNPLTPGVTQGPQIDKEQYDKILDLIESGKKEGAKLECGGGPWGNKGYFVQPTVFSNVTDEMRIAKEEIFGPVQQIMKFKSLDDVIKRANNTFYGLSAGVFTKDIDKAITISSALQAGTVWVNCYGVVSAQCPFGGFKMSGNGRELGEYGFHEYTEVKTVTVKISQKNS
In the case of `Cc1n[nH]c(=S)n(NC(=O)/C=C/C(=O)Nn2c(=S)[nH]nc(C)c2=O)c1=O`, the Potency is reported as inconclusive: 39.8 µM [inhibitor, single point]. With `Cc1sc2nc(-c3ccccc3)[nH]c(=O)c2c1-c1ccccc1` the Potency was inconclusive: 25.1 µM [inhibitor, partial curve]. With `Cc1c(N(C(=O)CNC(=O)c2ccccc2)C2(C(=O)NC3CCCC3)CCCCC2)c(=O)n(-c2ccccc2)n1C` the Potency was inconclusive: 39.8 µM [inhibitor, single point]. With `COc1cc(CCC(=O)OCC(=O)Nc2cccc(S(N)(=O)=O)c2)cc(OC)c1OC` the Potency was “inactive”. In the case of `CN1C(=O)/C(=C/c2ccc(-c3ccccc3[N+](=O)[O-])o2)SC1=Nc1ccc(Cl)c(C(=O)O)c1`, the Potency is reported as active: 12.6 µM. `CCCCC1C(=O)N(c2ccccc2)N(c2ccccc2)C1=O` was tested, and the Potency was inconclusive: 31.6 µM [inhibitor, single point] and inconclusive: 1.12 µM [inhibitor, single point]. With `CC(C)CCNC(=O)c1csc2c1CCCCC2` the Potency was “inactive”. With `NC1=CC(=O)c2cccc3cccc1c23` the Potency was active: 1 µM. In the case of `O=C(Nc1ccccc1C(=O)Nc1nnc(C(F)(F)F)s1)c1ccccc1Cl`, the Potency is reported as inconclusive: 25.1 µM [inhibitor, single point]. With `CC(=C\C(=O)O)/C(=C/c1ccc(C)o1)C(=O)O` the Potency was active: 22.4 µM. With `O=c1[nH]nc(CNc2ccc(O)cc2)c2ccccc12` the Potency was inconclusive: 39.8 µM [inhibitor, single point]. In the case of `Cn1c(CO)cnc1SCC(=O)c1ccc(Cl)cc1`, the Potency is reported as active: 22.4 µM. With `C=CCn1c(COc2ccc3c(c2)CCCC3)nnc1SCC(=O)Nc1cccc(SC)c1` the Potency was “inactive”. With `Cc1cc(CN(C)C(=O)CC2C(=O)NCCN2Cc2c(F)cccc2Cl)n[nH]1` (stereo not drawn) the Potency was active: 15.8 µM. `O=C(C[C@@H](C(=O)O)N1CCOCC1)c1ccccc1` was tested, and the activity, negative = inhibition was inactive: 5.9% [at 13.5 µM]. With `CC(C)OC(=O)CSc1nc(N)c(C#N)c(-c2ccco2)c1C#N` the Potency was inconclusive: 3.98 µM [inhibitor, partial curve]. With `COc1ccc(C2=[N+]([O-])C(C)(C)N(O)C2C)cc1` (stereo not drawn) the Potency was “inactive”. `COC(=O)c1ccccc1NC(=O)Nc1cccs1` was tested, and the Potency was inconclusive: 39.8 µM [inhibitor, single point]. For `COc1cc(CNC2CCCC2)cc(OC)c1`, the Potency was inconclusive: 31.6 µM [inhibitor, single point]. With `O=C(Nc1nc2c(s1)CCCC2)c1cccs1` the Potency was “inactive”. With `CCn1c(SCC(=O)c2cc(C)n(CC3CCCO3)c2C)nc2ccccc21` (stereo not drawn) the Potency was inconclusive: 39.8 µM [inhibitor, single point]. `COc1ccc(OC)c(NC(=O)c2ccc(-c3cccs3)cc2)c1` was tested, and the Potency was inconclusive: 39.8 µM [inhibitor, single point]. In the case of `CC(C)(C)NC(=O)CSc1nc2ccccc2n1-c1ccccc1`, the Potency is reported as “inactive”. With `CCn1cc(CNC(=O)CCc2nnc(CCC3CCCCC3)o2)cn1` the Potency was “inactive”. In the case of `CSc1sc(-c2ccnc(SCCS(C)(=O)=O)n2)c(-c2ccccc2)c1C#N`, the Potency is reported as inconclusive: 25.1 µM [inhibitor, partial curve]. With `CCOC(=O)c1[nH]c2ccc(OC)cc2c1NC(=O)OC` the Potency was inconclusive: 25.1 µM [inhibitor, partial curve]. `COc1cc(-c2nnc(CSc3nnc(Nc4ccc(Oc5ccccc5)cc4)s3)o2)cc(OC)c1OC` was tested, and the Potency was inconclusive: 0.794 µM [inhibitor, full curve]. In the case of `Cc1ccc(NC(=O)CN(C)CC(=O)Nc2ccccc2C(=O)Nc2ccccc2)cc1`, the Potency is reported as inconclusive: 39.8 µM [inhibitor, single point]. For `N#CC1=C(N)N2C(=C(C#N)C13CCCCC3)SC1CCCCC12O` (stereo not drawn), the Potency was active: 0.708 µM. For `O=C1ON=C(c2ccccc2)/C1=C/c1ccc(-c2ccccc2[N+](=O)[O-])o1`, the Potency was active: 10 µM. In the case of `Cc1cc(C)c(S(=O)(=O)NCC23C=CC(O2)C2C(=O)N(c4ccccc4)C(=O)C23)c(C)c1` (stereo not drawn), the Potency is reported as active: 2.51 µM. `COc1ccc(C(=O)Oc2cc(/C=N/NC(N)=S)ccc2OC)cc1` was tested, and the Potency was “inactive”. `COc1ccc(OCc2nc3ccc(S(=O)(=O)Nc4ccccc4Cl)cc3[nH]2)cc1` was tested, and the Potency was inconclusive: 31.6 µM [inhibitor, single point]. `CN(C1CCS(=O)(=O)C1)S(=O)C12CC3CC(CC(C3)C1)C2` (stereo not drawn) was tested, and the Potency was inconclusive: 39.8 µM [inhibitor, single point]. For `COc1ccc(/C=C/C(=O)N(CC(C)C)CC(C)C)cc1Br`, the Potency was inconclusive: 39.8 µM [inhibitor, single point]. With `CCOCCCNC(=O)c1ccc(N2CCCC2)c(NS(=O)(=O)c2ccc(C)cc2)c1` the Potency was active: 7.94 µM. `Cc1ccc(N2C(=O)/C(=C\c3ccco3)SC2=S)cc1` was tested, and the Potency was inconclusive: 8.91 µM [inhibitor, single point]. For `c1ccn(-c2ncnc3sc4c(c23)CCCC4)c1`, the Potency was inconclusive: 44.7 µM [inhibitor, single point]. `COc1cc(NC(=O)CSCC(=O)Nc2cccc(C(F)(F)F)c2)c(Cl)cc1Cl` was tested, and the Potency was inconclusive: 28.2 µM [inhibitor, single point]. For `Cc1ccn2c(NC3CCCC3)c(-c3ccsc3)nc2c1`, the Potency was inconclusive: 39.8 µM [inhibitor, single point]. With `CC1CCCCN1C(=O)CSc1nnc(-c2ccco2)n1CC1CCCO1` (stereo not drawn) the Potency was inconclusive: 31.6 µM [inhibitor, single point]. For `CN1CCN(c2ccc(S(=O)(=O)N3CCCCC3)cc2NC(=O)c2ccc3ccccc3c2)CC1`, the Potency was “inactive”. With `CCOc1ccc(-n2c(C)cc(/C=N\NC(=O)CC(=O)NC3CCCCC3)c2C)cc1` the Potency was “inactive”. `COCCOC(=O)c1c(C)nc(SCC(=O)Nc2ccc(OC)cc2)c(C#N)c1-c1ccco1` was tested, and the Potency was inconclusive: 28.2 µM [inhibitor, single point]. With `CCC(C)NC(=O)CSC1=Nc2ccccc2C2=NC(CC(=O)NCc3ccccc3)C(=O)N12` (stereo not drawn) the Potency was inconclusive: 31.6 µM [inhibitor, single point]. With `CCOc1ccc2nc(C)cc(Nc3ccc4c(c3)OCCO4)c2c1` the Potency was inconclusive: 28.2 µM [inhibitor, single point]. In the case of `CCOc1ccccc1OCCC(=O)OCC(=O)c1ccc[nH]1`, the Potency is reported as “inactive”. For `CCCCCCCCOC(=O)C1=C(C)Nc2nnnn2C1c1cccs1` (stereo not drawn), the Potency was inconclusive: 35.5 µM [inhibitor, single point]. In the case of `COC(=O)c1ccc2c(c1)N(C)CCS2`, the Potency is reported as inconclusive: 37.7 µM [inhibitor, single point]. For `CCCCNC(=O)CSc1nc2cc3c(cc2c(=O)n1Cc1ccco1)OCO3`, the Potency was inconclusive: 22.4 µM [inhibitor, partial curve]. In the case of `COCCCNC(=O)C(=O)NC1CCCCCC1`, the Potency is reported as “inactive”. In the case of `Cc1ccccc1CNC(=O)Nc1cccs1`, the Potency is reported as inconclusive: 39.8 µM [inhibitor, single point]. With `COc1ccccc1-c1nc2cc3ccccc3cc2nc1-c1ccccc1OC` the Potency was inconclusive: 39.8 µM [inhibitor, single point]. `Cc1ccc(S(=O)(=O)Nc2nc3ccccc3nc2NCc2ccc3c(c2)OCO3)cc1C` was tested, and the Potency was inconclusive: 39.8 µM [inhibitor, single point]. For `COc1ccc(CN(C)Cc2cc(=O)n3ccsc3n2)c(OC)c1OC`, the Potency was “inactive”. `O=C(CNc1cccc2ccccc12)c1ccc([N+](=O)[O-])cc1` was tested, and the Potency was inconclusive: 3.98 µM [inhibitor, full curve]. For `COc1ccccc1-c1cc(=O)c2cccc(OC)c2o1`, the Potency was inconclusive: 35.5 µM [inhibitor, single point]. With `COc1ccccc1/C=C/C(=O)OCCN1CCOCC1` the Potency was inconclusive: 39.8 µM [inhibitor, single point]. `CCN1C(=O)C(CC(=O)Nc2ccc(OC)cc2)N(CCCN2CCN(c3ccc(F)cc3)CC2)C1=S` (stereo not drawn) was tested, and the Potency was “inactive”. For `Cc1c(NC(=O)c2cc(-c3cccs3)on2)c(=O)n(-c2ccccc2)n1C`, the Potency was active: 31.6 µM. For `Cc1ccc2occ(C(c3nnnn3Cc3ccccc3)N3CCOCC3)c(=O)c2c1` (stereo not drawn), the Potency was “inactive”. In the case of `CC(=O)c1ccc(-c2ccc(C(=O)N3CCCc4ccccc43)o2)cc1`, the Potency is reported as inconclusive: 31.6 µM [inhibitor, single point]. In the case of `CC(/C=C/c1ccccc1)=N/NC(=O)c1nc2nc(C)cc(C)n2n1`, the Potency is reported as inconclusive: 31.6 µM [inhibitor, single point]. `COC(=O)C1=C(C)NC2=C(C(=O)CCC2)C1c1cn(Cc2ccc(Br)cc2)nc1-c1ccccc1` (stereo not drawn) was tested, and the Potency was inconclusive: 39.8 µM [inhibitor, single point]. `COC(=O)c1c(-c2ccc(OC)c(OC)c2)csc1N` was tested, and the Potency was active: 3.98 µM. `Cc1ccc2[nH]c(-c3ccccc3)cc(=O)c2c1` was tested, and the Potency was “inactive”. In the case of `CCN1CCCC1Cn1cnc2c([nH]c3cccc(Cl)c32)c1=O` (stereo not drawn), the Potency is reported as inconclusive: 35.5 µM [inhibitor, partial curve]. In the case of `CCOC(=O)c1c(C)oc2c1c(C(c1ccncc1)N1CCOCC1)c(O)c1ccccc12` (stereo not drawn), the Potency is reported as active: 12.6 µM. With `CC1CCCC(NC(=O)Nc2cccs2)C1C` (stereo not drawn) the Potency was inconclusive: 39.8 µM [inhibitor, single point]. `Cc1cc(C)nc(N/N=C/C=C/c2ccccc2)n1` was tested, and the Potency was “inactive”. For `O=C(O)CNc1ccc(S(=O)(=O)C(F)(F)F)cc1[N+](=O)[O-]`, the Potency was inconclusive: 22.4 µM [inhibitor, single point]. In the case of `O=C(OCc1nnc(-c2ccccc2)o1)c1cc([N+](=O)[O-])ccc1Cl`, the Potency is reported as “inactive”. For `CC(C)c1ccc(Oc2cccc(C(=O)/C(C#N)=C/N(C)C)c2)cc1`, the Potency was “inactive”.
